# Reference: PubChem BioAssay AID1347417 (National Center for Advancing Translational Sciences (NCATS), 2020)
# Among all 120,000 compounds or so, about 5,300 (4.4%) were called active. Inconclusive results, whose numbers are uncertain, are shown with a selection of clear calls. Calls follow the shape of the dose curve; as a rule, active = well fitted inhibition curve with a large enough effect; inconclusive = small, poorly fitted or top-dose-only effect; inactive = no such curve, though single readings can be large or run the other way. Where the call is inconclusive, the potency comes from a doubtful curve fit.
# Assay: qHTS Primary assay for Inhibitors of Plasmodium falciparum Dd2 growth in vitro; also: nearly all actives have a fitted effect of over 65% in size;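 as to activity, negative = inhibition: plate controls were DMSO vehicle for no effect and reference drug for full effect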
# Settings: P. falciparum Dd2 growth, SYBR Green, 72 h; activity, negative = inhibition: at 28.9 µM (top of the series) unless noted; series mostly up to 28.9 µM
# Outline: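 Infected erythrocytes (Dd2, 0.3% parasitemia, 2.5% hematocrit final) are added to compound in RPMI-1640/Albumax II medium, grown 72 h at 37C in low oxygen, then lysed with saponin/Triton-X containing SYBR Green and read by fluorescence.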
# Potency is read from the fitted curve at half-maximal effect; tags tell the direction and shape of the fitted curve.
Structure (SMILES),Potency,outcome,"activity, negative = inhibition"
O=C(Nc1cccc(-c2ccc(N3CCOCC3)nn2)c1)Nc1cc(F)ccc1F,"inconclusive: 17.8 µM [inhibitor, single point]",,
COc1ccc(OC)c(CNC(=O)c2cc(-c3ccc(Cl)s3)nc3ccccc23)c1,"inconclusive: 8.91 µM [inhibitor, partial curve, poor fit]",,
COc1cc(-c2nc3n(n2)C(c2ccc(F)cc2)C(C(N)=O)=C(C)N3)cc(OC)c1OC (configuration not stated),"inconclusive: 10 µM [inhibitor, single point]",,
Cc1ccc(-n2nc(C(=O)NCCc3cccc(C)c3)c3c4ccccc4n(C)c3c2=O)cc1,,inactive,
COc1ccccc1NC(=O)c1oc2ccccc2c1NC(=O)c1ccc(S(=O)(=O)N(C)C)cc1,"inconclusive: 10 µM [inhibitor, single point]",,
O=C(NCCn1cccc1-c1nc(-c2ccccc2)no1)c1ccc(F)c(Cl)c1,"inconclusive: 11.2 µM [inhibitor, single point]",,
CC1(c2ccccc2)CCCN(C(=O)CCn2ccc(=O)[nH]c2=O)C1 (configuration not stated),,,inactive: -8.03%
O=C(O)COc1ccc(-c2nccc3c2C(=O)N(Cc2cccc(C(F)(F)F)c2)CC(COc2ccc(OC(F)(F)F)cc2)O3)cc1 (configuration not stated),,inactive,
COc1ccc(-c2cc3ccc(O)c(CN4CCN(CCO)CC4)c3oc2=O)cc1OC,"inconclusive: 10 µM [inhibitor, single point]",,
Cc1cccn2c(Nc3ccc4c(c3)OCCO4)c(-c3ccc(Br)o3)nc12,active: 8.91 µM,,
O=C1Nc2ccccc2CC12CCN2Cc1cncs1 (configuration not stated),,,inactive: -13% [at 44.1 µM]
CC(C)CCN1CCC(N2CCN(S(=O)(=O)c3ccc(F)c(Cl)c3)CC2)C1=O (configuration not stated),"inconclusive: 2.24 µM [inhibitor, full curve, poor fit]",,
CSCC(=O)Nc1ccc(=O)n2c1[C@@H]1C[C@@H](CN(C(=O)c3ccc(F)cc3)C1)C2,"inconclusive: 6.31 µM [inhibitor, full curve, poor fit]",,
Cc1ccc(C2Cn3nnc(-c4noc(-c5nn(C)c6ccccc56)n4)c3CO2)cc1 (configuration not stated),"inconclusive: 1.78 µM [inhibitor, full curve, poor fit]",,
CCNC(=O)N1CCCCCC1CN1CCC(C)CC1 (configuration not stated),,inactive,
CCOc1ccc(N(CC)S(=O)(=O)N2CCCC(C(=O)Nc3ccc(NC(C)=O)cc3)C2)cc1 (configuration not stated),"inconclusive: 11.2 µM [inhibitor, single point]",,
CCS(=O)(=O)c1nc(S(=O)(=O)c2ccc(C)cc2)c(NCc2ccc(Cl)cc2)s1,"inconclusive: 14.1 µM [inhibitor, single point]",,
CCc1cc(=O)n(Cc2cccnc2)c(N2CCOCC2)n1,"inconclusive: 10 µM [inhibitor, single point]",,
COc1ccc(CC(=O)NC2CCN(c3cc(C)cc(C)c3)C2=O)c(Cl)c1 (configuration not stated),"inconclusive: 11.2 µM [inhibitor, single point]",,
COc1ccc(OC2CCN(C(C)=O)CC2)c(C(=O)NCc2csc(C(C)C)n2)c1,,,inactive: -17.4%
O=C(NC1CCCN(c2cc(-c3ccc(F)cc3)[nH]n2)C1)c1cccc(Br)c1 (configuration not stated),,,inactive: -6.63%
COC(=O)c1ccc(NC(=O)N2CCC(CN3CCc4ccccc4C3)CC2)cc1,"inconclusive: 15.8 µM [inhibitor, single point]",,
CCN1CC(C(=O)NCc2noc(Cc3ccccc3)n2)CCC1=O (configuration not stated),,,inactive: -15.5%

Structure (SMILES),Potency,outcome,"activity, negative = inhibition"
COc1ccc(NC(=O)CSc2ccc(-c3cccs3)nn2)cc1,"inconclusive: 10 µM [inhibitor, partial curve]",,
Cc1ccc(CNC(=O)N2CCC(Oc3ccccc3-c3nc(C)no3)C2)cc1 (configuration not stated),,,inactive: -18.5%
Cc1cc2c(c(=O)n(-c3ccccc3)c(=O)n2CC(=O)Nc2cccc(F)c2)n1C,"inconclusive: 17.8 µM [inhibitor, single point]",,
COc1ccc(-c2cc(N3CCCC(NC(=O)c4cccc(C#N)c4)C3)n[nH]2)cc1 (configuration not stated),"inconclusive: 3.98 µM [inhibitor, single point]",,
Cc1ccncc1C(=O)N1CCOc2c(O)cc(-c3ccccc3C)cc2C1,,,inactive: -9.4%
CC(=O)N1CCCc2cc(S(=O)(=O)N3CCCC(C(=O)NCc4ccccc4)C3)ccc21 (configuration not stated),"inconclusive: 20 µM [inhibitor, single point]",,
Cc1ccc(Cn2cc(C(=O)c3ccc(C)cc3)c(=O)c3ccc(C)nc32)cc1,"inconclusive: 10 µM [inhibitor, single point]",,
O=C(c1ccc(-n2cnnn2)cc1O)N1CCCC(CCc2ccc(F)cc2)C1 (configuration not stated),active: 12.6 µM,,
COc1ccc(-c2nc(C(C)C)nc3c2CCN(C(=O)c2ccc(C)cc2)CC3)cc1,"inconclusive: 2.24 µM [inhibitor, full curve, poor fit]",,
O=C1CCCCN1CC(=O)N1CCCC(Nc2ccccc2)C1 (configuration not stated),,,inactive: -3.76%
O=C1C2=C(Nc3ccccc3SC2c2ccc(Cl)c(Cl)c2)c2ccccc21 (configuration not stated),active: 3.55 µM,,
CC(C)NC(=O)C[C@@H]1CCNC[C@@H]1Cc1cc(-c2ccc(C(C)(C)C)cc2)on1,active: 7.08 µM,,
CN(C)c1ccc(-c2nnc([C@H]3CCN(C(=O)c4ccccn4)C3)o2)cc1,"inconclusive: 10 µM [inhibitor, partial curve, poor fit]",,
CCN(CCOc1ccccc1)C(=O)c1ccoc1C,"inconclusive: 14.1 µM [inhibitor, partial curve, poor fit]",,
Cc1cc(Cn2cc3c4c(cccc42)[C@H](CC(C)C)N[C@H](C(=O)N2CCCCCC2)C3)no1,,,inactive: -18.5%
Cc1cnn(CCC(=O)N[C@@H]2CN(Cc3ccccc3)C[C@H]2CN(C)C)c1,,,inactive: -0.986%
Cc1ccc(Cl)cc1N1CCN(C(=O)c2cn(CC(C)C)c(=O)c3c2c2ccccc2n3C)CC1,active: 3.16 µM,,
O=C(CCn1nnnc1CN1CCOCC1)N1CCN(c2nc3ccccc3s2)CC1,,,inactive: -1.56%
COc1ccc(Cl)cc1-c1ccc2c(c1)C(=O)N1CCN(C(=O)c3ccco3)C[C@H]1C(=O)N2,"inconclusive: 17.8 µM [inhibitor, single point]",,
COc1cc(F)ccc1-c1ccnc2nc(Cc3ccc(F)cc3)nn12,"inconclusive: 17.8 µM [inhibitor, single point]",,
CCn1cc(S(=O)(=O)N2CCC3(CC2)CC(OCC2CC2)CCO3)cn1 (configuration not stated),"inconclusive: 17.8 µM [inhibitor, single point]",,
Cc1ccc(NC(=O)Cn2cccc2-c2nc(-c3ccc4c(c3)OCO4)no2)cc1C,,,inactive: 166%
CCc1ccc(CNC(=O)C(CC)n2nc(C)c3c(C)n(-c4ccccc4)nc3c2=O)cc1 (configuration not stated),"inconclusive: 17.8 µM [inhibitor, single point]",,

Structure (SMILES),Potency,outcome,"activity, negative = inhibition"
COCC1CN(C(C)=O)CC12CCN(Cc1ccc(Cl)c(F)c1)CC2 (configuration not stated),,,inactive: -19.6%
CC(C)NC(=O)N1CCCC(c2noc(COc3ccccc3)n2)C1 (configuration not stated),"inconclusive: 7.08 µM [inhibitor, single point]",,
COc1ccc(-c2cc3nc(C)c(CCC(=O)Nc4ccc(F)cc4F)c(C)n3n2)c(OC)c1,"inconclusive: 17.8 µM [inhibitor, single point]",,
Cc1ccc(NC(=O)Cn2c(=O)c(-c3noc(C)n3)c3n(c2=O)CCCC3)c(Cl)c1,,inactive,
COCc1ncc(C)n1CCNC(=O)c1cc(-c2ccc(C)c(C)c2)n[nH]1,"inconclusive: 17.8 µM [inhibitor, single point]",,
O=C1[C@H]2CN(Cc3cc(F)ccc3F)C[C@H]2C(=O)N1Cc1ccc2c(c1)OCO2,"inconclusive: 0.794 µM [inhibitor, partial curve]",,
O=C(c1cc(F)ccc1Cl)N1C[C@@H](CO)[C@H](c2ccccn2)C1,,,inactive: 16.3%
COc1cccc(CC(=O)NCc2nnc3cc(-c4nc(C5CC5)no4)ccn23)c1,active: 6.31 µM,,
COc1ccc2c(c1)c(=O)c(C(=O)c1ccc(C)cc1)cn2Cc1ccccc1F,active: 12.6 µM,,
COc1ccc(Nc2ncc(-c3cccnc3)c3c2OCC3)cc1,,inactive [at 44.1 µM],
O=c1[nH]c(C2CCCN(Cc3ccccn3)C2)nn1-c1ccc(Cl)cc1 (configuration not stated),active: 1.41 µM,,
CCNC(=O)N1CCc2c(sc3ncnc(NCC)c23)C1,"inconclusive: 6.31 µM [inhibitor, partial curve, poor fit]",,
COc1ccc(C2c3c(-c4ccccc4O)n[nH]c3C(=O)N2CCc2ccccc2)cc1 (configuration not stated),"inconclusive: 10 µM [inhibitor, single point]",,
O=C1NCCCCCN(Cc2cccnc2)[C@@H]2CN(Cc3cccc(F)c3)CC[C@@H]12,"inconclusive: 10 µM [inhibitor, single point]",,
COc1ccc(OC)c(-c2noc(N3CCN(c4cc(Cl)ccc4C)CC3)n2)c1,active: 8.91 µM,,
Cc1nc(C)c(C(=O)N2CCC[C@H](n3c(=O)n(Cc4ccccc4)c4cccnc43)C2)s1,"inconclusive: 10 µM [inhibitor, single point]",,
Cc1cnc(-c2ccccc2)n1CC1CCN(C(=O)C(C)c2ccccc2)CC1 (configuration not stated),"inconclusive: 7.08 µM [inhibitor, partial curve, poor fit]",,
CCC1CCCCN1CCCNC(=O)c1ccc2c(c1)sc1nc(-c3ccc(F)cc3)cn12 (configuration not stated),active: 1 µM,,
Cc1cc(C)cc(NC(=O)C(=O)NCC(c2cccnc2)N2CCc3ccccc32)c1 (configuration not stated),"inconclusive: 17.8 µM [inhibitor, single point]",,
CCCN1CCCC12Cc1ccccc1CN([S+](C)(=O)[O-])C2 (configuration not stated),"inconclusive: 0.501 µM [inhibitor, full curve, poor fit]",,
COc1ccc(CN2CCCC3(Cc4ccccc4CN(C(C)=O)C3)C2)cc1 (configuration not stated),"inconclusive: 20 µM [inhibitor, single point]",,
